Measurements: paper PMC6212790
The other results are listed elsewhere or left out. At the low end of the ranking the order means little.

molecular target: T1, GST-Rok-C97-191 (UniProt O34857); assay: protein binding microarray; settings: Rok is a gene silencer of Bacillus subtilis; high values mean tight binding; most listed sequences are background and not binding sites; double strand, one strand shown;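 also: rank score from −0.5 (least bound) to 0.5 (best bound)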
T1 sequence: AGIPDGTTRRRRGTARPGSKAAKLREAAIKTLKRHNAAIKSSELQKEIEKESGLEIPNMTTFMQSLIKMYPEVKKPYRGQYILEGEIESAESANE

Sequence | binding signal [E-score]
AGGATTTC | -0.0498
TATCTTCA | 0.216
CGCCTCGA | -0.0915
ACTGTTTG | 0.109
TCAGCGCA | -0.0835
CCGAAATC | -0.0351
ATCTGGAG | -0.162
CAGCCCGC | -0.298
AGGATCTC | 0.0324
CTATACTC | 0.173
ACGCTCTA | 0.138
ATTCCCCA | 0.00649
CATCAAAG | 0.0174
ACGGCGTA | 0.0787
GATTACCC | -0.211
ACGAGGGA | -0.207
CGAGTTTC | 0.049
AACTTAGA | 0.146
CAGACGCG | -0.319
AGCAGGAT | -0.00135
ATATCCCG | -0.0416
GTGTATAA | 0.21
AGGTCTAG | -0.109
GATGTAGC | 0.126
CCATAAAG | -0.0985

Sequence | binding signal [E-score]
GTGACCTA | 0.00217
CCGCATCC | -0.17
CGTGAGGA | -0.135
CCACGGCG | -0.177
ATTTAGAA | 0.127
AACCGCTT | -0.109
AAGCAGAT | 0.0834
CCTGAGAG | -0.163
GGTTAACC | 0.109
CCGTCTAC | -0.0475
AAATTGTC | 0.107
CCCGTCGC | -0.273
GTTGCGGA | 0.0514
ATTAGACC | 0.0369
CCTCGGGA | -0.14
CTTGTTCA | 0.0304
AACATTAG | 0.196
CGAGCATA | 0.059
CGTGAGGC | -0.256
ACGCACAA | -0.115
AACTAGGA | 0.154
CACCCAAG | -0.17
AGTATACG | 0.219
AGTCAGAA | 0.0656
GTATGATA | 0.302

Sequence | binding signal [E-score]
ACCGGATC | -0.0169
CGCCGCAG | -0.246
CATAGCGA | 0.0301
GACGTCTA | 0.207
GGCTTTAC | -0.0797
CAGAGCGC | -0.0288
ATTGCTGG | 0.137
AAGGGCCA | -0.136
CCAGGTTC | -0.286
ATACTTTC | 0.238
GGCCACAC | -0.181
CTGGACAA | -0.166
AAATAATC | 0.188
ACGAGCCG | -0.253
CATGGGCA | -0.053
ATGGCGTA | 0.0101
AACGGAGG | -0.102
AGTCACAG | -0.0998
TGAAATAA | 0.116
AAAGCAAG | -0.0178
CAAGCCCA | -0.0345
ATCTATTA | 0.353
AAACACTG | -0.111
GCGTGCAA | -0.134
AGAGGCAT | 0.0046

Sequence | binding signal [E-score]
AAAGGGAT | -0.0928
ATAATCAT | 0.152
CAGGACCA | -0.177
ACGTAGAA | 0.162
CGAGCCGA | -0.177
CTCGGGGA | -0.344
GGGCTGGA | -0.0859
ACTTCGGC | -0.124
GATCCAAC | -0.164
GTCATGTA | 0.182
CGCGTTCC | -0.0762
ATACGATG | 0.147
ACAGACAT | 0.0121
ACGCCGCG | -0.137
CTGTCGCC | -0.168
AGTAAGGA | 0.0919
CGCTCAAG | -0.0375
CAAGTAAC | -0.056
ATTGTAGG | 0.0264
AAGGTCAA | -0.11
ATGCGGGG | -0.315
AGCCGCTG | -0.194
CATCGGGA | -0.0177
TCATCCGA | -0.094
CAACTACC | 0.271

Sequence | binding signal [E-score]
CCGCTTAG | -0.103
ACCCAAAT | -0.00366
CTCAGTCC | -0.232
CCGCCAAC | -0.374
CCCGTTTA | -0.0976
GCGACCAC | -0.0405
GGGAAGGA | -0.18
ACTTTGGG | 0.065
ATGAGCCC | -0.262
AGGCGGTC | -0.357
TATTGACA | 0.0261
AGCAGTGG | -0.264
GGGCCCAC | -0.356
TAGTAGAA | 0.433
ACATCCTG | -0.137
ACTTATCG | 0.173
CTACAAAG | 0.0557
ACTCCCCG | -0.0535
ACACACGC | -0.0942
CTCGGATA | 0.101
TCCGTAAA | -0.0596
CTCTTCCA | -0.287
GATATGGA | 0.0314
ATGTCGTC | -0.229
AGGGAAAT | 0.0705

Sequence | binding signal [E-score]
ACCATTGA | 0.125
GACAAGCA | -0.109
CTATGTGC | -0.0872
CTTCCTGC | -0.225
ACGTTACA | 0.23
CTATCTCA | 0.178
CTTTATTA | 0.159
AAATCAAT | 0.124
ATATTAAG | 0.297
CACTCAAA | -0.0724
CAACGACA | 0.109
CTTACTTA | 0.189
AACATGCA | 0.147
TGCGATAA | 0.116
CATAGTGG | -0.018
CGTTTAAG | -0.082
TATCCGGA | -0.0785
CGTAAGGA | -0.0918
ATCTCGAA | 0.0799
AGATGAAA | -0.0885
TATTATGA | 0.181
CAAGCTCA | -0.0409
CACGGTAA | 0.131
CTACCAAA | 0.247
GCGTACCA | -0.205

Sequence | binding signal [E-score]
CATTGGCA | -0.218
CGGGCGTC | -0.296
GATGAAGA | -0.0669
GCCCCTAC | -0.105
ATAATTGC | 0.26
AGCGCTAG | 0.154
CTGGATTA | -0.0333
ATCGAGGA | -0.0332
CGCCAAAG | -0.161
AACGTATT | 0.254
CCACATGG | -0.118
GCACCCGC | -0.185
ATAGCTTA | 0.169
ACCGGCAC | -0.121
ACGCCGGA | -0.187
ATACTTAA | 0.00261
ATCCGAGG | -0.035
CGTTTCAG | -0.0327
AAAGCTTA | 0.0996
AAAAGTTA | 0.233
AAATTTAC | 0.38
TAGTAAAA | 0.37
